# Results published in the BET-seq Pho4 binding data (Le et al. 2018).
# This is one part of the list. Values were computed here from the reads of four pooled replicates and scatter widely.
# Molecular target: T1, Pho4 (S. cerevisiae) (UniProt P07270)
# T1 sequence: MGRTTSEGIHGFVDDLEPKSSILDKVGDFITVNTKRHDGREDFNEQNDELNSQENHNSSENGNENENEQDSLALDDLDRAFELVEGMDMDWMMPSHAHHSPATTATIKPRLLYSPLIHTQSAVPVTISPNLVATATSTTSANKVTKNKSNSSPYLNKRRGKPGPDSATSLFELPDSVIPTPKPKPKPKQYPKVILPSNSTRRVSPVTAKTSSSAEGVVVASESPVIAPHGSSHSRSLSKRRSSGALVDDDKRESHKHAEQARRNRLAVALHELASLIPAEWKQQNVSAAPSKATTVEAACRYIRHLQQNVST
# Assay: relative binding free energy (BET-seq); higher = weaker binding
# Details: reference: library average
row,Sequence,relative binding free energy
1,GTTAGCACGTGTCGGG,0.11 kcal/mol
2,TCCGTCACGTGGTGGG,-0.01 kcal/mol
3,ACGGGCACGTGCTAGG,-0.08 kcal/mol
4,ATTAGCACGTGGTTGT,-0.06 kcal/mol
5,GGGGACACGTGTGTTC,0.16 kcal/mol
6,GTTGACACGTGAGAGA,0.27 kcal/mol
7,AGAGGCACGTGTAGTA,-0.03 kcal/mol
8,TTATGCACGTGGGATC,-0.17 kcal/mol
9,GAGGGCACGTGCGGGG,-0.07 kcal/mol
10,GGGTGCACGTGAGCGG,0.26 kcal/mol
11,TAATACACGTGTGCGG,0.06 kcal/mol
12,ATGAGCACGTGTTTGC,-0.21 kcal/mol
13,CTAGTCACGTGAGGTT,0.35 kcal/mol
14,GTAGGCACGTGGATAA,0.01 kcal/mol
15,AGTTACACGTGTCTGG,0.11 kcal/mol
16,AGAAGCACGTGTGCGT,-0.01 kcal/mol
17,TGAGGCACGTGTCGGA,0.02 kcal/mol
18,GAAGTCACGTGGCAGG,0.11 kcal/mol
19,TTGATCACGTGGTGAA,0.14 kcal/mol
20,TCGATCACGTGTATTG,0.04 kcal/mol
21,TCGGGCACGTGAGGTA,0.08 kcal/mol
22,TTGATCACGTGAAGGT,0.35 kcal/mol
23,CTCGTCACGTGTCGGG,0.09 kcal/mol
24,CCGTGCACGTGTGGTG,-0.06 kcal/mol
25,CTAAACACGTGGTGTG,-0.16 kcal/mol
26,GCGTGCACGTGTTAGT,-0.05 kcal/mol

row,Sequence,relative binding free energy
1,TGCGTCACGTGGTGGG,0.04 kcal/mol
2,TTGGGCACGTGGTTGA,-0.19 kcal/mol
3,ATGTTCACGTGTTGCT,0.25 kcal/mol
4,TTTGCCACGTGGAATT,0.05 kcal/mol
5,TGGGACACGTGAGTGA,0.35 kcal/mol
6,ACATTCACGTGGTGTA,0.07 kcal/mol
7,TTTTACACGTGGGAAA,-0.03 kcal/mol
8,TGAGGCACGTGTAATT,0.05 kcal/mol
9,AGCGGCACGTGCGTGT,-0.33 kcal/mol
10,TCAGTCACGTGTATTT,0.16 kcal/mol
11,TCGAACACGTGTGGTG,0.02 kcal/mol
12,GGGCTCACGTGGGGTG,0.03 kcal/mol
13,GGCGTCACGTGCGAGG,-0.03 kcal/mol
14,GTTATCACGTGTCGAT,0.25 kcal/mol
15,GTGCGCACGTGGTATG,-0.11 kcal/mol
16,ATGTCCACGTGATAGT,0.24 kcal/mol
17,ATGTACACGTGTCAGT,0.03 kcal/mol
18,ACTGGCACGTGATTAG,0.03 kcal/mol
19,GGGGGCACGTGGAATT,0.08 kcal/mol
20,GTGTACACGTGAGGGG,0.37 kcal/mol
21,AGGGTCACGTGTCTAA,0.11 kcal/mol
22,CTGTCCACGTGTAGGG,0.06 kcal/mol
23,TTATGCACGTGTTTGA,-0.06 kcal/mol
24,GTTGGCACGTGGGAAA,-0.06 kcal/mol
25,GGATGCACGTGGCAGG,-0.13 kcal/mol
26,GATGACACGTGTATTT,0.14 kcal/mol

row,Sequence,relative binding free energy
1,CGATGCACGTGATGTT,0.04 kcal/mol
2,AAATACACGTGGTGTG,-0.04 kcal/mol
3,GTTCTCACGTGGGATG,0.18 kcal/mol
4,TATGCCACGTGTTTGG,-0.24 kcal/mol
5,ACTTTCACGTGGGAGG,0.11 kcal/mol
6,TGCGACACGTGGAAGG,0.08 kcal/mol
7,GTTAGCACGTGATTTT,0.24 kcal/mol
8,TGTGTCACGTGCGGTA,0.14 kcal/mol
9,TTTAACACGTGCTTGT,-0.07 kcal/mol
10,GGTGTCACGTGCAAAG,0.05 kcal/mol
11,GTGCACACGTGGGATG,-0.05 kcal/mol
12,TATGACACGTGAAAGG,0.41 kcal/mol
13,TGTTGCACGTGTAAGC,0.1 kcal/mol
14,AGGTTCACGTGGCTAA,0.12 kcal/mol
15,AATGTCACGTGGCGGA,0.06 kcal/mol
16,AAGTTCACGTGGTCTT,0.27 kcal/mol
17,GGAGGCACGTGCGTAG,-0.05 kcal/mol
18,AGTTTCACGTGTGTTG,0.37 kcal/mol
19,TATTACACGTGAGACG,0.39 kcal/mol
20,TTTTGCACGTGGGGTG,-0.13 kcal/mol
21,ATTACCACGTGGGGAA,0.07 kcal/mol
22,GTTAGCACGTGGTTTC,0.01 kcal/mol
23,TGTGACACGTGCGGGA,-0.05 kcal/mol
24,TATTGCACGTGTGTAG,0.01 kcal/mol
25,GCAGGCACGTGAAGTG,0.12 kcal/mol
26,TAGGTCACGTGGTTAA,0.09 kcal/mol

row,Sequence,relative binding free energy
1,TAGTTCACGTGCTTTG,0.19 kcal/mol
2,AGGCGCACGTGAGGGC,0.07 kcal/mol
3,GGGTTCACGTGGTATC,0.49 kcal/mol
4,GAGGACACGTGGTCAG,0.09 kcal/mol
5,CAATGCACGTGGGTAG,-0.17 kcal/mol
6,GGTGGCACGTGCCTGA,-0.1 kcal/mol
7,GAGTTCACGTGGAAGA,0.4 kcal/mol
8,GGAGACACGTGAAGGT,0.29 kcal/mol
9,GTGTACACGTGATGTT,0.21 kcal/mol
10,AGGTGCACGTGAAGAG,0.14 kcal/mol
11,GCTGGCACGTGAAAGG,0.1 kcal/mol
12,TGGGCCACGTGATTAA,0.18 kcal/mol
13,GGCTTCACGTGATGGG,0.41 kcal/mol
14,TTAGGCACGTGCGGTT,-0.18 kcal/mol
15,TTATACACGTGTTGGC,0.04 kcal/mol
16,CGGGTCACGTGCTTGT,0.15 kcal/mol
17,AAGATCACGTGAGGGC,0.29 kcal/mol
18,TACGTCACGTGTTTAG,0.09 kcal/mol
19,TATTCCACGTGGTGTA,-0.01 kcal/mol
20,TTAAGCACGTGCTTGG,-0.14 kcal/mol
21,GTGGACACGTGCATTT,0.2 kcal/mol
22,GATTCCACGTGTGGAT,0.24 kcal/mol
23,AGGGGCACGTGGAAAG,-0.08 kcal/mol
24,AGTTGCACGTGATATA,0.05 kcal/mol
25,TGACACACGTGTTTTT,0.05 kcal/mol
26,GTTGGCACGTGGTCCT,-0.22 kcal/mol

row,Sequence,relative binding free energy
1,GATGTCACGTGCGGTC,0.23 kcal/mol
2,TTGATCACGTGAGTGC,0.51 kcal/mol
3,ATCATCACGTGTATGT,-0.01 kcal/mol
4,AATAGCACGTGTGGAT,-0.02 kcal/mol
5,CTAGTCACGTGTTATA,0.23 kcal/mol
6,AAATACACGTGGATGT,0.11 kcal/mol
7,ATGGTCACGTGTTTCT,0.01 kcal/mol
8,CTGGGCACGTGAGTCT,0.23 kcal/mol
9,CTTAACACGTGTGTGG,0.06 kcal/mol
10,GGATTCACGTGGGATG,0.28 kcal/mol
11,AATTACACGTGGTTAA,0.07 kcal/mol
12,ATTGTCACGTGGAATA,0 kcal/mol
13,CTGTACACGTGGATTT,0.09 kcal/mol
14,GAGATCACGTGCTGGT,0.04 kcal/mol
15,ATGAACACGTGGGAGA,-0.04 kcal/mol
16,AGAGGCACGTGCGTAG,-0.3 kcal/mol
17,TGTGACACGTGTCTGT,-0.02 kcal/mol
18,TAGTGCACGTGGTCGA,-0.15 kcal/mol
19,GGTATCACGTGAGTGG,0.33 kcal/mol
20,AGTTCCACGTGGGGGT,-0.14 kcal/mol
21,TAATTCACGTGGTCTG,0.26 kcal/mol
22,ATTGACACGTGGAGAT,-0.03 kcal/mol
23,GGGTGCACGTGATGAG,0.21 kcal/mol
24,GTATACACGTGGAGTT,0.07 kcal/mol
25,TGGTACACGTGTTGCG,-0.07 kcal/mol
26,GGTGACACGTGCGGCT,0 kcal/mol

row,Sequence,relative binding free energy
1,GGGTGCACGTGCGGTG,-0.09 kcal/mol
2,GCGTTCACGTGAAGTT,0.4 kcal/mol
3,GTTTCCACGTGCGTGG,0.04 kcal/mol
4,TGTAGCACGTGTGCGG,-0.04 kcal/mol
5,CGGGGCACGTGGCGGC,-0.14 kcal/mol
6,AAACTCACGTGGTGGG,0.23 kcal/mol
7,AGATGCACGTGAAGTG,0.11 kcal/mol
8,AAGGTCACGTGGTTAG,-0.03 kcal/mol
9,ATAGTCACGTGTCGAG,0.18 kcal/mol
10,ATTTACACGTGTAGAT,0.19 kcal/mol
11,CTTTGCACGTGTAAGA,0.22 kcal/mol
12,ATGGCCACGTGGTAGG,-0.16 kcal/mol
13,AAGGTCACGTGCTGGA,-0.05 kcal/mol
14,CGGTTCACGTGGGTTG,0.13 kcal/mol
15,TTAGGCACGTGCTAAT,-0.13 kcal/mol
16,TTTGACACGTGCTTGT,-0.1 kcal/mol
17,AGGAGCACGTGAGGGA,0 kcal/mol
18,TTGTTCACGTGTAGTA,0.23 kcal/mol
19,CAGTTCACGTGCGGTG,0.35 kcal/mol
20,ATTTTCACGTGGCATG,0.13 kcal/mol
21,TATATCACGTGGAGGC,0.16 kcal/mol
22,CGGGTCACGTGCGGTT,0.04 kcal/mol
23,AGATTCACGTGTAGCT,0.26 kcal/mol
24,GGAGACACGTGGGAGA,0.11 kcal/mol
25,GGAGACACGTGAGTGA,0.16 kcal/mol
26,TTTCTCACGTGGAATG,0.39 kcal/mol

row,Sequence,relative binding free energy
1,TCTTACACGTGGAGAG,0.35 kcal/mol
2,TGTTTCACGTGCGTGT,0.19 kcal/mol
3,TGTGTCACGTGTTGAC,0 kcal/mol
4,AGTGACACGTGGGAGC,-0.12 kcal/mol
5,TTCGTCACGTGGTCGG,0 kcal/mol
6,TTAATCACGTGGTATC,0.02 kcal/mol
7,TTTGGCACGTGAGATT,0.3 kcal/mol
8,GTTATCACGTGACTTG,0.36 kcal/mol
9,TGAATCACGTGATTGA,0.3 kcal/mol
10,AGGGCCACGTGGGGCT,-0.27 kcal/mol
11,AGGTTCACGTGAGTTC,0.4 kcal/mol
12,GTGTTCACGTGGCGTG,0.13 kcal/mol
13,TAGATCACGTGGGAGG,0.02 kcal/mol
14,AGAGGCACGTGCGGAG,-0.2 kcal/mol
15,AGTTTCACGTGCGAAT,0.29 kcal/mol
16,ATGGTCACGTGTAGTA,0.17 kcal/mol
17,TAGTGCACGTGTAGTG,0.02 kcal/mol
18,GCTTTCACGTGTCGGG,0.33 kcal/mol
19,GTTAACACGTGGGCAG,-0.1 kcal/mol
20,CTAGACACGTGGGGCG,-0.18 kcal/mol
21,AGGTTCACGTGGGATA,0.24 kcal/mol
22,CTTGTCACGTGTTTGG,0.1 kcal/mol
23,TGGGTCACGTGTAACG,0.16 kcal/mol
24,TTTCGCACGTGCGGTA,-0.03 kcal/mol
25,GGGTCCACGTGGTAGG,0.13 kcal/mol
26,TGTGGCACGTGAGTAA,0.24 kcal/mol

row,Sequence,relative binding free energy
1,AGGTTCACGTGTGGGG,0.35 kcal/mol
2,AGGTGCACGTGGTTAC,-0.09 kcal/mol
3,TTAAGCACGTGATGGG,0.02 kcal/mol
4,TTGTGCACGTGGTGAT,-0.06 kcal/mol
5,GTATGCACGTGTGTCA,0.22 kcal/mol
6,TGGTGCACGTGGGGCC,-0.17 kcal/mol
7,CTATTCACGTGATTGT,0.25 kcal/mol
8,GCGGACACGTGGGGTC,-0.04 kcal/mol
9,GGATCCACGTGTAGGT,0.18 kcal/mol
10,GTAGACACGTGATTTT,0.07 kcal/mol
11,ATGGGCACGTGGCCGG,-0.23 kcal/mol
12,TTTCACACGTGTCGTT,0.14 kcal/mol
13,TGCTGCACGTGAGAGT,0.24 kcal/mol
14,TTTTACACGTGAAGTA,0.44 kcal/mol
15,GGTAGCACGTGTCTTT,0.04 kcal/mol
16,CATAGCACGTGGCGGT,-0.09 kcal/mol
17,AGGACCACGTGTGTGG,-0.1 kcal/mol
18,CTTGGCACGTGTGGTC,0 kcal/mol
19,GGCTGCACGTGCGATG,0.1 kcal/mol
20,GAGCGCACGTGGGTTG,-0.13 kcal/mol
21,CTCGTCACGTGGTTAT,0 kcal/mol
22,TGCTACACGTGGCGGG,-0.02 kcal/mol
23,GGGTTCACGTGGCAAG,0.28 kcal/mol
24,TTTCTCACGTGCCGGT,0.34 kcal/mol
25,ATTGGCACGTGTGTTT,0.07 kcal/mol
26,TGAGTCACGTGGTGTA,-0.04 kcal/mol

row,Sequence,relative binding free energy
1,GGTCTCACGTGTCTTT,0.29 kcal/mol
2,TGACGCACGTGTGAGT,0.04 kcal/mol
3,TGCGGCACGTGAGGCA,0.05 kcal/mol
4,TGAGGCACGTGAAGCG,0.17 kcal/mol
5,GGAGTCACGTGAAGGG,0.35 kcal/mol
6,TGGTTCACGTGTAGAT,0.38 kcal/mol
7,AGAGGCACGTGGTAGT,-0.19 kcal/mol
8,GTCGGCACGTGCTTGG,-0.18 kcal/mol
9,CTGGTCACGTGACGGG,0.13 kcal/mol
10,ATGGTCACGTGACTTT,0.2 kcal/mol
11,CAAGACACGTGGGGGT,-0.07 kcal/mol
12,TTAATCACGTGAAGAT,0.29 kcal/mol
13,AATGGCACGTGTAATG,0.1 kcal/mol
14,TGAGACACGTGGGATT,0.02 kcal/mol
15,GGGAGCACGTGGGGCC,-0.15 kcal/mol
16,ATTGGCACGTGAGGGT,0.18 kcal/mol
17,TTGGCCACGTGGTGCG,-0.21 kcal/mol
18,TCGTACACGTGTATGG,0 kcal/mol
19,TGGTCCACGTGCAGTG,0.18 kcal/mol
20,TTGTGCACGTGCGCAG,-0.09 kcal/mol
21,GGTTACACGTGTGGAA,0.11 kcal/mol
22,TAGTTCACGTGCGTAG,0.28 kcal/mol
